# Source: PubChem BioAssay AID686971 (National Center for Advancing Translational Sciences (NCATS), 2013)
# The campaign covered roughly 360,000 compounds. About 7,500 (2.1%) were called active. Inconclusive means that the source gave no clear call. Such entries were picked first, then a sample of the others. Calls come from the whole dose curve; as a rule, active = well fitted cell-killing curve with a large enough effect; inconclusive = small, poorly fitted or top-dose-only effect, or effect the other way, or another doubt; inactive = no such curve, though single readings can be large or run the other way. No potency is given beside an inconclusive call; the fits are too rough.
# Test: qHTS for induction of synthetic lethality in tumor cells producing 2HG: qHTS for the HT-1080-IDH1KD cell line;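 for activity, negative = toxicity: 0% = DMSO wells and -100% = cell-free medium wells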
# Conditions: HT-1080 IDH1 knockdown viability, ATP luminescence, 48 h; activity, negative = toxicity: at 46.1 µM (top of the series) unless noted
# Summary of the method: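 HT-1080-IDH1KD cells (IDH1 knocked down), 750/well in RPMI with 5% FBS, treated with compound 48 h at 37 degrees C. Viability by CellTiter-Glo luminescence, normalised to DMSO and no-cell wells; concentration-response curves classed.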
# Potency is the fitted concentration of half-maximal effect; tags give direction and shape of the fitted curve.
Compound,Potency,"activity, negative = toxicity"
CCOC(=O)c1nc(-c2ccc3c(c2)OCO3)[nH]c1C,"inconclusive [cytotoxic, single point]",
Cc1ccc(SCCC(=O)Nc2ccccc2Br)cc1,,inactive: 10.2%
Cc1ccc(-c2csc3nc(SCC(N)=O)n(Cc4ccccc4)c(=O)c23)cc1,"inconclusive [cytotoxic, single point]",
CC(=O)N1CCN(c2ccc(NC(=O)c3ccc(N4CCCC4)c([N+](=O)[O-])c3)cc2Cl)CC1,"inconclusive [cytotoxic, single point]",
CCCCOc1ccc(-c2nnn(CC(=O)NCc3ccco3)n2)cc1,active: 7.94 µM,
CC(=O)Nc1cccc(-c2ccnc3c2CC(C(=O)NCC2CCOCC2)O3)c1 (configuration not stated),"inconclusive [cytotoxic, single point]",
O=C1N[C@H](Cc2ccccc2)COC(=O)[C@H](Cc2ccc(F)cc2)C/C=C\C[C@@H]1CC(=O)N(CCO)Cc1ccccc1,"inconclusive [cytotoxic, single point]",
Cc1onc(-c2ccccc2Cl)c1C(=O)N1CCN(c2cccc(Cl)c2)CC1,active: 2.06 µM,
O=C1CC(CSc2ccc(Cl)cc2)=NN1,,inactive: -0.426%
CN1CCN(c2nc(-c3cccnc3)nc3ccccc23)CC1,"inconclusive [cytotoxic, single point]",
CC(Sc1nnc2c(n1)[nH]c1ccccc12)C(=O)NC1CCCCC1 (configuration not stated),"inconclusive [cytotoxic, single point]",
CCC1CCCCN1C(=O)COC(=O)c1cc(C)nc2ccccc12 (configuration not stated),,inactive: -1.61%
Cn1c(=O)c(C(=O)NNC(=O)c2cccc(Cl)c2)c(O)c2ccccc21,active: 9.2 µM,
Cc1ccc(N2CCN(C(=O)C(=O)c3ccc(F)c(F)c3)CC2)cc1,,inactive: -2.12%
CCC(C)(C)C1CCc2c(sc(NC(=O)c3ccccc3C(=O)O)c2C#N)C1 (configuration not stated),"inconclusive [cytotoxic, partial curve, poor fit]",
COc1ccc(OC)c(CN2CCN(C(=O)c3ccc(F)cc3)CC2)c1,,inactive: 2.96%
CCOC(=O)C1(CCOc2ccccc2)CCN(Cc2cc(OC)c(O)cc2Cl)CC1,,inactive: -15.4%
O=C(NC1CCCC1)C1CCCN(S(=O)(=O)c2ccc(F)cc2)C1 (configuration not stated),,inactive: 3.06%
CCOC(=O)C1=C(N)n2c(s/c(=C/c3ccco3)c2=O)=C(C(=O)OC)C1c1ccco1 (configuration not stated),active: 14.6 µM,
CCOC(=O)c1cnc2ccc(C)cc2c1Nc1ccc(N2CCOCC2)cc1,"inconclusive [cytotoxic, single point]",
COc1ccc(C(=O)NCCNc2nc3c(C)cccc3cc2C#N)cc1OC,,inactive: -5.64%
CC1=CC(=O)C(Sc2ccc(C)cc2)=CC1=O,"inconclusive [cytotoxic, single point]",
Cc1ccc(Oc2ccc(C(=O)NCc3ccncc3)cc2)cc1,"inconclusive [cytotoxic, partial curve]",
Cc1cc(/C=C2\SC(=O)N(CC(=O)Nc3ccccc3F)C2=O)c(C)n1C,"inconclusive [rising, partial curve]",

Compound,Potency,"activity, negative = toxicity"
CCOC(=O)N(C)c1c(CC)nc2c(OCCC3CCCCC3)cccn12,"inconclusive [cytotoxic, single point]",
CC1CN(c2ccc([N+](=O)[O-])c(NCCOc3ccccc3)c2)CCN1 (configuration not stated),active: 16.4 µM,
S=C(Nc1cc(Cl)cc(Cl)c1)NC1CCN(Cc2ccccc2)CC1,"inconclusive [cytotoxic, single point]",
Cc1c(O)ccc(/C(Cc2ccc3ccccc3n2)=N\O)c1O,,inactive: -3.35%
CCCCN1C(=O)C(=O)c2cc(Cl)ccc21,active: 20.6 µM,
COc1ccc(N(CC(=O)Nc2nc3ccc(C)cc3s2)S(=O)(=O)c2c(C)nn(C)c2C)cc1,"inconclusive [cytotoxic, single point]",
O=C(Nc1cccc2ncccc12)c1ccc([N+](=O)[O-])o1,active: 14.6 µM,
N#Cc1ccccc1OCCCN1CCC(C(O)(c2ccccc2)c2ccccc2)CC1,"inconclusive [cytotoxic, single point]",
Cc1cc(O)ccc1Nc1nc(-c2cccnc2)cs1,"inconclusive [cytotoxic, partial curve, poor fit]",
CSc1nnc(C)c(/C=C/Nc2ccc(C)cc2)n1,"inconclusive [cytotoxic, single point]",
C/C(=N\Nc1nc2ccccc2[nH]1)c1ccc2c(c1)OCO2,"inconclusive [cytotoxic, single point]",
COc1cc(OC)nc(Oc2cc(/C=N/O)ccc2OC)n1,"inconclusive [cytotoxic, single point]",
Cc1c(C(=O)NC(=S)NCc2cccnc2)oc2ccccc12,"inconclusive [rising, partial curve, poor fit]",
COCC(O)CNc1ccccc1 (configuration not stated),,inconclusive: -0.964% [cytotoxic]
N#CC1=C(N)Oc2cc(N)ccc2C1c1cccc(Br)c1 (configuration not stated),"inconclusive [cytotoxic, full curve]",
COc1ccc(Cl)cc1NC(=O)C12CCC(C)(C(=O)O1)C2(C)C (configuration not stated),,inactive: -6.25%
O=C(C[C@H]1C(=O)N(Cc2ccccc2)C[C@@H]1c1ccc(Br)cc1)Nc1ccc(Br)cc1,"inconclusive [cytotoxic, single point]",
CCOC(=O)[C@H]1[C@H]2COc3ccc(C)cc3[C@@H]2N2C(=O)CN(Cc3ccccc3)C(=O)[C@@]12C,,inactive: 7.65%
CCOC(=O)Cn1c(=O)oc2cc(S(=O)(=O)N(C)c3ccc(OC)cc3)ccc21,,inactive: 6.09%
COc1ccc2cnn(CCOc3cc(C)ccc3C(C)C)c(=O)c2c1OC,,inactive: -17.4%
CC(=O)C1=C(O)C(=O)N(c2cc(C(C)(C)C)on2)C1c1ccc(Br)cc1 (configuration not stated),"inconclusive [cytotoxic, single point]",
Cc1cc(C)nc(Nc2nc(C(N)Cc3ccc(Cl)cc3)cs2)n1 (configuration not stated),active: 14.6 µM,
COc1ccc(OC)c(NC(=O)COC(=O)c2cc3c(s2)CCC3)c1,,inconclusive: -30.3% [cytotoxic]
